Where “and” joins values, the source holds several entries; their conditions need not be identical. Equal values may be shown once. The list shows a part of the results. These are further read-outs of the screen, such as a control signal, another cell line or another target. No call is given for them.

A short description of test [1]: compounds raising F508del-CFTR protein level – cell-based, HeLa F508del-CFTR, immunofluorescence, viability, primary screen (AID 1224863).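 As to fold increase: total CFTR protein by anti-CFTR immunofluorescence in fixed cells.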 The following applies: immunofluorescence total CFTR, 24 h, stronger effect = higher value, alamarBlue. For orientation: Alamar Blue is a resazurin reagent that responds to reducing activity.
Test [2] addresses Cystic fibrosis transmembrane conductance regulator (Homo sapiens) (UniProt P13569). The description is as above. The following applies: immunofluorescence total CFTR, 24 h, stronger effect = higher value; measured here: primary screen single dose 25 uM, at 25 µM, library dosed in µM unless noted.
Sequence of UniProt P13569 (P13569 whole entry, looked up): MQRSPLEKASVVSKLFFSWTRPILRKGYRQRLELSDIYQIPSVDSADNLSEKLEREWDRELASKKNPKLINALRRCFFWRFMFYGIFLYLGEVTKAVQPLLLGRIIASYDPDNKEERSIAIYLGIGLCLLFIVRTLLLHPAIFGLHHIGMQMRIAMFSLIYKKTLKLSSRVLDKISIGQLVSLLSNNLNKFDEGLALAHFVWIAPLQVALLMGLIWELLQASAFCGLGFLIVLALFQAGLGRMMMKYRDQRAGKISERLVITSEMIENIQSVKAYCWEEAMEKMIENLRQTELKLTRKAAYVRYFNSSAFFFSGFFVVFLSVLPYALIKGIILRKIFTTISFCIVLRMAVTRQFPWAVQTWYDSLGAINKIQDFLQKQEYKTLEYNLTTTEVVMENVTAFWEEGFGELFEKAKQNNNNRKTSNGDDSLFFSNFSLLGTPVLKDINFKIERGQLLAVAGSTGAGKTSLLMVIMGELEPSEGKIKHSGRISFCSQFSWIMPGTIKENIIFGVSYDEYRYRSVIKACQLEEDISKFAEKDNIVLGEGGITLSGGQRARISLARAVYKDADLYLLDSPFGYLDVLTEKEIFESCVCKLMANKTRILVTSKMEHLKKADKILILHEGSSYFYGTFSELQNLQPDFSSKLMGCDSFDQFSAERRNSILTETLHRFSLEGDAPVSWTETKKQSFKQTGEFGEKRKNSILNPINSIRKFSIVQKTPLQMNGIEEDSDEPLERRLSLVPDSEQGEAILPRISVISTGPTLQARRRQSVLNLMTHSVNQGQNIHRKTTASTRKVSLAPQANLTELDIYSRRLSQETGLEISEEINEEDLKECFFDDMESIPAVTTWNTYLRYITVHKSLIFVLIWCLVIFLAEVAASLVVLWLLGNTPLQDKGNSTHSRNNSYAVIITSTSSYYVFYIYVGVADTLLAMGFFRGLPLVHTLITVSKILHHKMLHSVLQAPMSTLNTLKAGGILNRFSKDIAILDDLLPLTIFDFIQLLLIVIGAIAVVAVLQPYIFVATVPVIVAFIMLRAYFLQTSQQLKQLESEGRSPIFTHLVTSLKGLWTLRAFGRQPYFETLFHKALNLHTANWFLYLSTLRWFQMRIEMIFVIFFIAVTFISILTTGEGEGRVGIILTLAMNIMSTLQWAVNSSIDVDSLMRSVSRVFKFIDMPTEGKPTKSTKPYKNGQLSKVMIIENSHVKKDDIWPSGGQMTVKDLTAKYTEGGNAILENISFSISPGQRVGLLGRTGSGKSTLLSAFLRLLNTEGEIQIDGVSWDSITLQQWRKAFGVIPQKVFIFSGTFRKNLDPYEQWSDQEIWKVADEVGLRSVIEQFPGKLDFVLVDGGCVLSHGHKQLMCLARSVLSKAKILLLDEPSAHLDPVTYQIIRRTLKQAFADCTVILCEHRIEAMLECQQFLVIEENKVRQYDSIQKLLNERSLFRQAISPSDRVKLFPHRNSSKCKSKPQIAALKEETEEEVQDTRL
Setting [3] is: min viability: measured here: HeLa viability, dose 50, library dosed in µM unless noted, viability: measured here: primary viability 25 uM, at 25 µM, library dosed in µM unless noted.

In the case of `CCN(CC)CCCC(C)Nc1c2ccc(Cl)cc2nc2ccc(OC)cc12` (configuration not stated), in test [1] (setting [3]), the min viability is 26.9%; the viability (usually a read-out of living cells in per cent, often relative to untreated cells) was 24% and 66%. The fold increase in test [2] is 0.61 and 2.44.

As for `Cc1cc(NC(=O)CCC2CCCCC2)n(C2CCS(=O)(=O)C2)n1` (configuration not stated), in test [1] (setting [3]), the min viability was 67.9% [measured here: HeLa viability, alamarBlue, dose 0.078, library dosed in µg/mL] and the viability is 92% [measured here: primary viability 10 ug/mL, library dosed in µg/mL]. Also, in test [2], the fold increase is 4.58 [measured here: primary screen 10 ug/mL, library dosed in µg/mL].

Regarding `CC(C)C[C@H](NC(=O)[C@H](Cc1ccccc1)NC(=O)c1cnccn1)B(O)O`, in test [1] (setting [3]), the min viability is 76.8% [measured here: HeLa viability, alamarBlue, dose 0.78, library dosed in µM] and the viability was 64%. Moreover, the fold increase in test [2] stood at 3.65.

As to `CC(=O)S[C@@H]1CC2=CC(=O)CC[C@]2(C)[C@H]2CC[C@@]3(C)[C@@H](CC[C@@]34CCC(=O)O4)[C@H]12`, in test [1] (setting [3]), the min viability was determined as 82.7% and the viability worked out at 84%. The fold increase in test [2] was determined as 1.9.

On to `N#Cc1c(/C=C/c2cccc(Cl)c2)cc(-c2ccc(Cl)cc2)n2c1nc1ccccc12`, for which, in test [1] (setting [3]), the min viability was 81.6% [measured here: HeLa viability, alamarBlue, dose 5, library dosed in µg/mL] and the viability was 91% [measured here: primary viability 10 ug/mL, library dosed in µg/mL]. Moreover, in test [2], the fold increase is 2.68 [measured here: primary screen 10 ug/mL, library dosed in µg/mL].

Consider `CCNC(=O)Cn1c(=O)/c(=C/c2sccc2C)s/c1=C\C(=O)C(C)(C)C`, for which, in test [1] (setting [3]), the min viability was 80% [measured here: HeLa viability, alamarBlue, dose 5, library dosed in µg/mL] and the viability is 81% [measured here: primary viability 10 ug/mL, library dosed in µg/mL]. For the same compound, in test [2], the fold increase was 2.04 [measured here: primary screen 10 ug/mL, library dosed in µg/mL].

As to `CC[C@H](C)C(=O)O[C@H]1CCC=C2C=C[C@H](C)[C@H](CC[C@@H]3C[C@@H](O)CC(=O)O3)[C@H]21`, in test [1] (setting [3]), the min viability is 83.8% [measured here: HeLa viability, alamarBlue, dose 25, library dosed in µM] and the viability was found to be 82%. The fold increase in test [2] came out at 1.56.

With `N#Cc1nc2c(S(=O)(=O)c3ccc(Cl)cc3)c(N)n(CCCN3CCOCC3)c2nc1C#N`, in test [1] (setting [3]), the min viability was 51.7% [measured here: HeLa viability, alamarBlue, dose 20, library dosed in µg/mL] and the viability was 77% [measured here: primary viability 10 ug/mL, library dosed in µg/mL]. For the same compound, the fold increase in test [2] is 1.46 [measured here: primary screen 10 ug/mL, library dosed in µg/mL].

For `CC(C)(C)NC(=O)[C@H]1CCC2C3CCC4NC(=O)C=C[C@]4(C)C3CC[C@@]21C` (some centres not stated), the viability in test [1] (setting [3]) was 68%. The fold increase in test [2] stood at 1.23.

Take `Nc1ccc2cc3ccc(N)cc3nc2c1`: in test [1] (setting [3]), the min viability worked out at 30.9% and the viability turned out to be 62%. The fold increase in test [2] is 5.23.

With `CN1[C@@H]2CC[C@H]1CC(OC(=O)C(CO)c1ccccc1)C2` (some centres not stated), in test [1] (setting [3]), the min viability amounted to 71.8%; the viability is 101% and 75%. Moreover, the fold increase in test [2] is 0.88 and 3.61.

For the compound `O=C(O)/C=C/c1ccc(Cn2ccnc2)cc1`, in test [1] (setting [3]), the min viability was 52.1% [measured here: HeLa viability, alamarBlue, dose 25, library dosed in µM]; the viability was 105% and 73%. For the same compound, the fold increase in test [2] was 1 and 3.21.

As to `O=C1/C(=C/c2ccc(Br)s2)COc2ccccc21`, in test [1] (setting [3]), the min viability is 67.4% [measured here: HeLa viability, alamarBlue, dose 10, library dosed in µg/mL] and the viability is 70% [measured here: primary viability 10 ug/mL, library dosed in µg/mL]. In addition, the fold increase in test [2] is 1.46 [measured here: primary screen 10 ug/mL, library dosed in µg/mL].

As to `CC(C)n1c(/C=C/[C@@H](O)C[C@@H](O)CC(=O)O)c(-c2ccc(F)cc2)c2ccccc21`, the viability in test [1] (setting [3]) was 88% and 82% and 95%. Moreover, the min viability is 84.3% in test [1] (measured here: HeLa viability, dose 6.25, library dosed in µM) and 82.1% in test [1] (measured here: HeLa viability, dose 50, library dosed in µM). The fold increase in test [2] is 1.87 and 1.67 and 2.05.

For `CCCN[C@H]1CCc2nc(N)sc2C1`, in test [1] (setting [3]), the min viability is 59.9% [measured here: HeLa viability, alamarBlue, dose 12.5, library dosed in µM]; the viability is 88% and 82%. Also, in test [2], the fold increase is 0.98 and 2.43.

On to `O=C1COc2ccc(C(=O)/C=C/c3ccc(N4CCOCC4)cc3)cc2N1`, for which, in test [1] (setting [3]), the min viability was 67.8% [measured here: HeLa viability, alamarBlue, dose 20, library dosed in µg/mL] and the viability is 92% [measured here: primary viability 10 ug/mL, library dosed in µg/mL]. Also, the fold increase in test [2] was 4.35 [measured here: primary screen 10 ug/mL, library dosed in µg/mL].

Turning to `CC(=O)c1c(C)[nH]c(-c2csc(/C(C#N)=C\c3ccc[nH]3)n2)c1C`, in test [1] (setting [3]), the min viability was 56.2% [measured here: HeLa viability, alamarBlue, dose 20, library dosed in µg/mL] and the viability is 60% [measured here: primary viability 10 ug/mL, library dosed in µg/mL]. For the same compound, the fold increase in test [2] was 1.07 [measured here: primary screen 10 ug/mL, library dosed in µg/mL].

With `COCc1c(C(C)C)nc(C(C)C)c(/C=C/[C@@H](O)C[C@@H](O)CC(=O)O)c1-c1ccc(F)cc1`, in test [1] (setting [3]), the min viability is 68.1% [measured here: HeLa viability, alamarBlue, dose 25, library dosed in µM] and the viability was 87%. In addition, the fold increase in test [2] stood at 1.51.

For the compound `O=[N+]([O-])c1ccc(/C=C/c2nc(-c3ccc(F)cc3)cs2)cc1`, in test [1] (setting [3]), the min viability was 77.7% [measured here: HeLa viability, alamarBlue, dose 0.63, library dosed in µg/mL] and the viability is 92% [measured here: primary viability 10 ug/mL, library dosed in µg/mL]. Further, the fold increase in test [2] was 1.59 [measured here: primary screen 10 ug/mL, library dosed in µg/mL].

Take `COc1cc(/C=C(/C#N)c2nc(C)cs2)cc2c1OCO2`: in test [1] (setting [3]), the min viability is 68.9% [measured here: HeLa viability, alamarBlue, dose 0.31, library dosed in µg/mL] and the viability was 105% [measured here: primary viability 10 ug/mL, library dosed in µg/mL]. Besides, in test [2], the fold increase is 7.36 [measured here: primary screen 10 ug/mL, library dosed in µg/mL].

Regarding `Oc1cccc2ccc(/C=C/c3cccc4c3OCO4)nc12`, in test [1] (setting [3]), the min viability was 62.6% [measured here: HeLa viability, alamarBlue, dose 20, library dosed in µg/mL] and the viability was 72% [measured here: primary viability 10 ug/mL, library dosed in µg/mL]. Further, in test [2], the fold increase was 1.6 [measured here: primary screen 10 ug/mL, library dosed in µg/mL].

For the compound `CN(Cc1cnn(-c2ccccc2)c1)C(=O)c1cnc2sccn2c1=O`, in test [1] (setting [3]), the min viability is 99.8% [measured here: HeLa viability, alamarBlue, dose 20, library dosed in µg/mL] and the viability is 94% [measured here: primary viability 10 ug/mL, library dosed in µg/mL]. In test [2], the fold increase was 1.5 [measured here: primary screen 10 ug/mL, library dosed in µg/mL].

Turning to `CNc1ccc(Cl)cc1N`, in test [1] (setting [3]), the min viability is 60.6% [measured here: HeLa viability, alamarBlue, dose 1.25, library dosed in µg/mL] and the viability is 80% [measured here: primary viability 10 ug/mL, library dosed in µg/mL]. For the same compound, the fold increase in test [2] was 2.25 [measured here: primary screen 10 ug/mL, library dosed in µg/mL].

Take `C=C[C@H]1CN2CC[C@H]1C[C@@H]2[C@@H](O)c1ccnc2ccc(OC)cc12`: the viability in test [1] (setting [3]) amounted to 103%. In addition, the fold increase in test [2] came out at 1.01.

For the compound `O=C(c1cc(C(=O)c2ccccc2)c2nc3ccccc3n2c1)c1ccccc1O`, in test [1] (setting [3]), the min viability is 88.9% [measured here: HeLa viability, alamarBlue, dose 20, library dosed in µg/mL] and the viability was 77% [measured here: primary viability 10 ug/mL, library dosed in µg/mL]. Moreover, in test [2], the fold increase was 2.39 [measured here: primary screen 10 ug/mL, library dosed in µg/mL].

On to `O=C1/C(=C/c2ccccc2F)CSc2ccccc21`, for which, in test [1] (setting [3]), the min viability was 55.2% [measured here: HeLa viability, alamarBlue, dose 20, library dosed in µg/mL] and the viability is 72% [measured here: primary viability 10 ug/mL, library dosed in µg/mL]. Besides, the fold increase in test [2] was 1.33 [measured here: primary screen 10 ug/mL, library dosed in µg/mL].

As to `CN1C2CC[C@@H]1CC(OC(=O)[C@H](CO)c1ccccc1)C2` (some centres not stated), in test [1] (setting [3]), the viability worked out at 93%. For the same compound, the fold increase in test [2] turned out to be 1.

Turning to `CCc1ccc(C(=O)NC2CCN(C3CC3)CC2)o1`, in test [1] (setting [3]), the min viability is 67.7% [measured here: HeLa viability, alamarBlue, dose 0.31, library dosed in µg/mL] and the viability was 96% [measured here: primary viability 10 ug/mL, library dosed in µg/mL]. Moreover, the fold increase in test [2] is 1.65 [measured here: primary screen 10 ug/mL, library dosed in µg/mL].
